Source: the supplement of paper PMC10126150
Values marked as one replicate rest on one cluster of the flow cell; about a third of the high ones do not repeat.

system: ATP; assay: switch fluorescence ratio, 500 uM ATP over buffer (Cy3 cluster intensity, sum of 5 cycles each) (fold (ratio)); higher = stronger signal-on switching upon ATP binding; sequences stand for … in TCGTCGGCAGCGTCAGATGTGTATAAGAGACAGTTTTTTTTTTTTTTTTTTTTTTTTT…TC; conditions: aptamer strand: ATP DNA aptamer (quencher-CACCTGGGGGAGTATTGCGGAGGAAGG + anchor), 100 nM annealed; ATP concentration: 500 uM; one replicate
Outline: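 Per cluster, summed Cy3 intensity from the target cycles was divided by that from the buffer cycles to give the fluorescence ratio, then averaged per switch-domain sequence. Clusters outside 100-1000 RFU were excluded. The Cy3-labelled switching-strand clusters, on a modified Illumina MiSeq flow-cell, were annealed to 100 nM quencher-labelled ATP aptamer and imaged in selection buffer, then after 15 min with 500 uM ATP at 22 °C, for five cycles with NaOH stripping and re-annealing between them.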
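Also: ATP exposure 15 min at 22 °C before imaging.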

Sequence | switch fluorescence ratio
TCTAGTGCAG | 1.02
TCTATAATAA | 1.05
TCTATCAGCT | 0.99
TCTATCGAT | 0.94
TCTATCGGC | 0.998
TCTATGAAGA | 0.952
TCTATGCGGT | 1.02
TCTATGGCGT | 0.992
TCTATTCGT | 0.993
TCTATTTGCT | 1.01
TCTATTTTGC | 1
TCTCACTTG | 1.02
TCTCAGATCA | 1.02
TCTCATGGGA | 0.986
TCTCCAGGGT | 1.53
TCTCCATGCC | 1.18
TCTCGAAGGG | 1.03
TCTCGAGTGC | 1.02
TCTCGCAGGA | 1.02
TCTCGCTGGA | 0.985
TCTCGGAAC | 1.42
TCTCGTGGGG | 0.995
TCTCGTGTTG | 1
TCTCTAACGC | 1.1
TCTCTCCCG | 1.12
TCTCTTGATT | 0.94

Sequence | switch fluorescence ratio
TCTGAAACGT | 1.07
TCTGAAAGGG | 1
TCTGAAAGTT | 0.989
TCTGACATCT | 0.988
TCTGACCGAA | 1.12
TCTGACGTGG | 1.07
TCTGACTACG | 1.01
TCTGAGCTGG | 1.09
TCTGAGGTCA | 0.972
TCTGAGGTCC | 1.05
TCTGATTCCC | 1.01
TCTGATTCTA | 0.981
TCTGCAGGGG | 1.21
TCTGCGTATC | 1.21
TCTGCTAGTG | 1
TCTGGACTAC | 1.58
TCTGGATA | 1.06
TCTGGATCGA | 0.972
TCTGGCTGA | 1.28
TCTGGGAAAT | 1.06
TCTGGTACAT | 1.12
TCTGGTACGG | 1.02
TCTGGTCACT | 0.991
TCTGGTCTGG | 0.977
TCTGGTGAGT | 0.989
TCTGGTTGTC | 1.05

Sequence | switch fluorescence ratio
TCTGTAGTCA | 1.17
TCTGTATCG | 0.988
TCTGTATGAG | 1.03
TCTGTCGAGC | 0.942
TCTGTGAGGC | 1.09
TCTGTGTCGG | 1.04
TCTGTGTGTC | 1.02
TCTGTTATAG | 1.11
TCTGTTCGCT | 1.02
TCTGTTCGG | 0.963
TCTGTTGGCT | 1.03
TCTTAATAGT | 0.966
TCTTACTAAC | 1.16
TCTTACTCT | 0.981
TCTTAGCCGG | 0.969
TCTTAGTGTT | 0.958
TCTTATCGAT | 1.03
TCTTCAAGT | 0.935
TCTTCGGACA | 1.17
TCTTCTCTGT | 1.15
TCTTCTGGTT | 1.35
TCTTGCTCCC | 1.81
TCTTGGAAGT | 1.02
TCTTGGCACT | 1
TCTTGGCAGG | 1.02
